# Reference: the supplement of paper PMC8728848
# Some of the results follow.
# Experiments:
# Assay in all cases: glycan array binding signal (z-score within array); higher = stronger binding
# Settings in all cases: glycan notation: IUPAC condensed, linker removed
# [1] = target: Fuc(a1-2)Gal(b1-4)GlcNAc(b1-3)Gal(b1-4)GlcNAc(b1-3)Gal(b1-4)GlcNAc
# Outline: (§1)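 Arrays were curated from the Consortium for Functional Glycomics database, 3228 in total, and kept only where the protein sequence was available. Binding is expressed as a within-array Z-score. This score was averaged across arrays of the same protein sequence at different concentrations or buffers and across linkers, and negative values can be read as non-binding.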
# [2] = target: Fuc(a1-2)Gal(b1-4)GlcNAc(b1-3)GalNAc
# Outline: as §1
# [3] = target: Fuc(a1-2)Gal(b1-4)GlcNAc(b1-3)[Fuc(a1-2)Gal(b1-4)GlcNAc(b1-6)]GalNAc
# Outline: as §1
# [4] = target: Fuc(a1-2)Gal(b1-4)GlcNAc(b1-3)[Fuc(a1-3)[Gal(b1-4)]GlcNAc(b1-6)]Gal(b1-4)Glc
# Outline: as §1
# [5] = target: Fuc(a1-2)Gal(b1-4)GlcNAc(b1-6)GalNAc
# Outline: as §1
# [6] = target: Fuc(a1-2)Gal(b1-4)GlcNAc6S
# Outline: as §1
# [7] = target: Fuc(a1-2)Gal(b1-4)[Fuc(a1-3)]GlcNAc
# Outline: as §1
# [8] = target: Fuc(a1-2)Gal(b1-4)[Fuc(a1-3)]GlcNAc(b1-2)Man(a1-3)[Fuc(a1-2)Gal(b1-4)[Fuc(a1-3)]GlcNAc(b1-2)Man(a1-6)]Man(b1-4)GlcNAc(b1-4)[Fuc(a1-6)]GlcNAc
# Outline: as §1
# [9] = target: Fuc(a1-2)Gal(b1-4)[Fuc(a1-3)]GlcNAc(b1-2)[Fuc(a1-2)Gal(b1-4)[Fuc(a1-3)]GlcNAc(b1-4)]Man(a1-3)[Fuc(a1-2)Gal(b1-4)[Fuc(a1-3)]GlcNAc(b1-2)Man(a1-6)]Man(b1-4)GlcNAc(b1-4)GlcNAc
# Outline: as §1
# [10] = target: Fuc(a1-2)Gal(b1-4)[Fuc(a1-3)]GlcNAc(b1-3)Gal(b1-4)[Fuc(a1-3)]GlcNAc
# Outline: as §1
# [11] = target: Fuc(a1-2)Gal(b1-4)[Fuc(a1-3)]GlcNAc(b1-3)Gal(b1-4)[Fuc(a1-3)]GlcNAc(b1-3)Gal(b1-4)[Fuc(a1-3)]GlcNAc
# Outline: as §1
# [12] = target: Fuc(a1-2)Gal(b1-4)[Fuc(a1-3)]GlcNAc(b1-3)GalNAc
# Outline: as §1
# [13] = target: Fuc(a1-2)Gal(b1-4)[Fuc(a1-3)]GlcNAc(b1-3)[Neu5Ac(a2-6)Gal(b1-4)GlcNAc(b1-6)]Gal(b1-4)Glc
# Outline: as §1
# [14] = target: Fuc(a1-2)Gal3S(b1-4)GlcNAc
# Outline: as §1
# [15] = target: Fuc(a1-2)Gal6S(b1-3)GlcNAc
# Outline: as §1
# [16] = target: Fuc(a1-2)Gal6S(b1-3)GlcNAc6S
# Outline: as §1
# [17] = target: Fuc(a1-2)Gal6S(b1-4)Glc
# Outline: as §1
# [18] = target: Fuc(a1-2)Gal6S(b1-4)Glc6S
# Outline: as §1
# [19] = target: Fuc(a1-2)[Gal(a1-3)]Gal
# Outline: as §1
# [20] = target: Fuc(a1-2)[Gal(a1-3)]Gal(b1-3)GalNAc
# Outline: as §1
# [21] = target: Fuc(a1-2)[Gal(a1-3)]Gal(b1-3)GalNAc(b1-3)Gal(a1-4)Gal(b1-4)Glc
# Outline: as §1
# [22] = target: Fuc(a1-2)[Gal(a1-3)]Gal(b1-3)GlcNAc
# Outline: as §1
# [23] = target: Fuc(a1-2)[Gal(a1-3)]Gal(b1-3)GlcNAc(b1-2)Man(a1-3)[Fuc(a1-2)[Gal(a1-3)]Gal(b1-3)GlcNAc(b1-2)Man(a1-6)]Man(b1-4)GlcNAc(b1-4)GlcNAc
# Outline: as §1
# [24] = target: Fuc(a1-2)[Gal(a1-3)]Gal(b1-3)GlcNAc(b1-2)Man(a1-3)[Fuc(a1-2)[Gal(a1-3)]Gal(b1-3)GlcNAc(b1-2)Man(a1-6)]Man(b1-4)GlcNAc(b1-4)[Fuc(a1-6)]GlcNAc
# Outline: as §1
# [25] = target: Fuc(a1-2)[Gal(a1-3)]Gal(b1-3)GlcNAc(b1-3)GalNAc
# Outline: as §1
# [26] = target: Fuc(a1-2)[Gal(a1-3)]Gal(b1-3)GlcNAc(b1-6)GalNAc
# Outline: as §1
# [27] = target: Fuc(a1-2)[Gal(a1-3)]Gal(b1-4)Glc
# Outline: as §1
# [28] = target: Fuc(a1-2)[Gal(a1-3)]Gal(b1-4)GlcNAc
# Outline: as §1
# [29] = target: Fuc(a1-2)[Gal(a1-3)]Gal(b1-4)GlcNAc(b1-2)Man
# Outline: as §1
# [30] = target: Fuc(a1-2)[Gal(a1-3)]Gal(b1-4)GlcNAc(b1-2)Man(a1-3)[Fuc(a1-2)[Gal(a1-3)]Gal(b1-4)GlcNAc(b1-2)Man(a1-6)]Man(b1-4)GlcNAc(b1-4)GlcNAc
# Outline: as §1
binder,measurement,setting,value
AidA (Burkholderia cenocepacia) (protein) MSRVTDVLVSFDTETILKKYPNPSKNPAAPTLIDWRYVYMVTNQDNVISGQAGGELDLKAQVGDLIRWRETSLSLGFENQVVFYKFIGNVGNDLISTPTPRVAEASIPVPNTSKPEVPTCQKVANYYWSSECLKVGRVTYHFQFQIIDRNCQSQGCFSWDPFISIHN,glycan array binding signal (z-score),[1],-0.157
same,glycan array binding signal (z-score),[2],0.035
same,glycan array binding signal (z-score),[3],0.357
same,glycan array binding signal (z-score),[4],0.059
same,glycan array binding signal (z-score),[5],0.111
same,glycan array binding signal (z-score),[6],-0.628
same,glycan array binding signal (z-score),[7],-0.335
same,glycan array binding signal (z-score),[8],1.33
same,glycan array binding signal (z-score),[9],0.273
same,glycan array binding signal (z-score),[10],0.21
same,glycan array binding signal (z-score),[11],-0.075
same,glycan array binding signal (z-score),[12],1.28
same,glycan array binding signal (z-score),[13],0.33
same,glycan array binding signal (z-score),[14],0.094
same,glycan array binding signal (z-score),[15],0.304
same,glycan array binding signal (z-score),[16],-0.604
same,glycan array binding signal (z-score),[17],-0.382
same,glycan array binding signal (z-score),[18],-0.235
same,glycan array binding signal (z-score),[19],0.288
same,glycan array binding signal (z-score),[20],-0.752
same,glycan array binding signal (z-score),[21],-0.206
same,glycan array binding signal (z-score),[22],0.339
same,glycan array binding signal (z-score),[23],0.554
same,glycan array binding signal (z-score),[24],1.35
same,glycan array binding signal (z-score),[25],-0.322
same,glycan array binding signal (z-score),[26],0.594
same,glycan array binding signal (z-score),[27],0.234
same,glycan array binding signal (z-score),[28],0.756
same,glycan array binding signal (z-score),[29],-0.764
same,glycan array binding signal (z-score),[30],0.558
